The whole screen tested about 310,000 compounds, of which about 14,000 (4.5%) showed an effect of 50% or more. The effect is printed as a negative number. The list shows a part of the results.
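Note: peak tail current of the secondary pulse compared with the same well before compound.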

In this experiment the target is human ether-à-go-go-related gene (hERG) potassium channel (human, UniProt Q12809). Nature of the experiment: primary screen, population patch clamp on CHO cells stably expressing hERG.
Sequence of human ether-à-go-go-related gene (hERG) potassium channel (Q12809 whole entry, looked up): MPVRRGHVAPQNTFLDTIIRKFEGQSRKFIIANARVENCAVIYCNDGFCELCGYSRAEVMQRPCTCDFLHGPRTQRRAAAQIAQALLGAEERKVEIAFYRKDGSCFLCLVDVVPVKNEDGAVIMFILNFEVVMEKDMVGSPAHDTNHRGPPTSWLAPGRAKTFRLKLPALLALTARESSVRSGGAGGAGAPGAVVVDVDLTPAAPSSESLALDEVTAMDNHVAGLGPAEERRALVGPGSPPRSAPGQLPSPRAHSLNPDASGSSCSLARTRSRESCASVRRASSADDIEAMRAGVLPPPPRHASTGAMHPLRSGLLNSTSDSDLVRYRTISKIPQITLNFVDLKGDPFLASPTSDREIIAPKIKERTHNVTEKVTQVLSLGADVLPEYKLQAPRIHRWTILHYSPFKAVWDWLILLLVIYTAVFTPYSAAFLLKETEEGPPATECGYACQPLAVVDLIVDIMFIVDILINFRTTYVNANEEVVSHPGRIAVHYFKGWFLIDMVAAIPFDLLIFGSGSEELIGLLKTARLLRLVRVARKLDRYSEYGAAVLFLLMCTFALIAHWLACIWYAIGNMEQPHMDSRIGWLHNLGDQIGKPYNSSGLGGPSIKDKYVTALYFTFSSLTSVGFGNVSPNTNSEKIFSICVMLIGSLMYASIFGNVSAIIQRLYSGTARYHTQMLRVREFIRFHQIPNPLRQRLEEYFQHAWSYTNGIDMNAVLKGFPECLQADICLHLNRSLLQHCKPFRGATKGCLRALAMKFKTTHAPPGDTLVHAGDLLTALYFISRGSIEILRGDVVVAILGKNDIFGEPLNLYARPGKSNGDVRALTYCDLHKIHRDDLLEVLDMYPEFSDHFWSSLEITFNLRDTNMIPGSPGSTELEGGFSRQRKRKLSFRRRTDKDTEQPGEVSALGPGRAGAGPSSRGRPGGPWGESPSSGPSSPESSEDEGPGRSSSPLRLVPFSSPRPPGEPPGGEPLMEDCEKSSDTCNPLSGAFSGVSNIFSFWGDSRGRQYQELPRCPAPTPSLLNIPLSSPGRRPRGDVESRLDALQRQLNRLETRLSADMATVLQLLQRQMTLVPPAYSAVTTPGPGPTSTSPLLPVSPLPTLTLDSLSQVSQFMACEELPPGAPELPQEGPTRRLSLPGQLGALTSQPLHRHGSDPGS
As for `CC[C@H](C)[C@@H](C(=O)NCCCCCCCCCCC(=O)N1CCNCC1)n1cc(CCCCCN)nn1`, the “hERG current change (%, negative = inhibition) at 10uM” value turned out to be 13.8%. The value for `Cc1nnc2n(-c3ccccc3)c(=O)c3c4c(sc3n12)COC(C(C)C)C4` (centres unmarked) was -13.6%. The value for `CCC[C@@H](CN[C@@H](CNC)C(C)C)NCCCCc1ccccc1` was -10.1%; that for `O=C(Oc1ccc(C(=S)N2CCOCC2)cc1)c1ccc(F)cc1` was 21.4%; that for `CCOc1ccc(S(=O)(=O)N2CCC(C(=O)NCc3ccccn3)CC2)cc1` was -25.9%. Under `Cn1ncc([N+](=O)[O-])c1C(=O)Nc1ccc(Cl)cc1` stands 1.61%; under `CCCCN1C(=O)/C(=c2\sc3nc(=O)c(-c4ccccc4)nn3c2=O)c2ccccc21`, 11.4%. `COc1ccc(Oc2coc3c(CN(C)C)c(O)ccc3c2=O)cc1`: the “hERG current change (%, negative = inhibition) at 10uM” value turned out to be 17.7%.

For the compound `CCN(NC(=O)C(O)(c1ccc(F)cc1)c1ccc(F)cc1)C(=O)c1ccccc1`, the “hERG current change (%, negative = inhibition) at 10uM” value is 7.27%. Under `COC(=O)C1=C(N)Oc2cc(C)n(Cc3ccco3)c(=O)c2C1c1cccc(Cl)c1` (centres unmarked) stands -5.24%; under `O=C(CCn1cncn1)N1CCCC(N2CCN(c3ccc(F)cc3)CC2)C1` (centres unmarked), -46.6%; under `O=C(c1ccc(COc2ccc(F)cc2)o1)n1cc(Br)cn1`, 4.68%. Turning to `O=C(COC(=O)C1Cc2ccccc2CN1C(=O)c1ccccc1)Nc1ccc(SC(F)F)cc1` (centres unmarked), the “hERG current change (%, negative = inhibition) at 10uM” value was -6.89%. Under `Cc1ccccc1NC(=O)Cc1nc(-c2c[nH]c(C(=O)N3CCCC3)c2)cs1` stands 4.63%; under `Cn1c2c(c(=O)n(C)c1=O)[C@@H]1c3c(ccc4ccccc34)OC[C@@H]1CO2`, 3.62%. The value for `O=C(OC(C(=O)NC1CCCCC1)c1ccccn1)c1cccs1` (centres unmarked) was 5.98%. Under `CC(=O)NC(NC(=S)Nc1ccc(S(N)(=O)=O)cc1)C(Cl)(Cl)Cl` (centres unmarked) stands 13%; under `Cn1c(CCNC(=O)c2ccccc2F)nnc1SCC(=O)Nc1nncs1`, 12.8%; under `Cc1[nH]n(-c2ccccc2)c(=O)c1C=Nc1ccc(S(=O)(=O)N=C(N)N)cc1`, 3.34%. Take `CC(C)c1ccc(CNc2ccc([N+](=O)[O-])cn2)cc1`: the “hERG current change (%, negative = inhibition) at 10uM” value is -7.79%. The value for `Cl.Clc1ccc(NCc2ccsc2)cc1` was 16.4%.

Consider `N#CC1=C(N)Oc2c(ccc3cccnc23)C1c1ccccc1` (centres unmarked), for which the “hERG current change (%, negative = inhibition) at 10uM” value is reported as -23.9%. With `COc1cc(/C=C(/NC(C)=O)C(=O)O)cc(Cl)c1OCc1ccc(Br)cc1`, the “hERG current change (%, negative = inhibition) at 10uM” value is reported as -1.19%. Under `CC(C)Cc1nnc(NC(=O)C2CCCC2)s1` stands 9.25%. Take `Cc1ccc(S(=O)(=O)N2CCN(CC(=O)N/N=C\c3cccnc3)CC2)cc1`: the “hERG current change (%, negative = inhibition) at 10uM” value is 0.297%.

Consider `NS(=O)(=O)c1ccc(CCNC(=O)c2ccncc2)cc1`, for which the “hERG current change (%, negative = inhibition) at 10uM” value was found to be 23.1%. The value for `Cc1ccc(NC(=O)Nc2ccc3c(c2)N(C)C(=O)CS3)nc1` was 1.11%; that for `O=C(c1ccc(Cl)s1)N1CCc2ccccc21` was -6.88%; that for `Cc1cccc(N=C2C(=O)Nc3c(Cl)cccc32)c1` was 18.5%. Under `c1ccc(CCn2nnnc2CN2CCc3ccccc32)cc1` stands -11.4%; under `Cc1ccccc1N(CC(=O)NC(C)(C)C)C(=O)c1ccc(-c2ccccc2)[nH]1`, -5.85%. Under `CC(C)[C@H](NC(N)=O)C(=O)NCCc1ccc(Cl)cc1Cl` stands -27%. As for `Cc1ccc(NC(=O)Cn2nnc(-c3ccc4c(c3)OCO4)n2)cc1F`, the “hERG current change (%, negative = inhibition) at 10uM” value is recorded as 11%.

Turning to `C=CCc1cc(/C=C2/NC(=O)N(CC)C2=O)cc(OCC)c1OCc1ccc(C(=O)O)cc1`, the “hERG current change (%, negative = inhibition) at 10uM” value is recorded as -5.71%.

Take `CCOc1cc2oc(=O)c3c(c2cc1Cl)CCC3`: the “hERG current change (%, negative = inhibition) at 10uM” value is 7.75%. The value for `COc1cc(/C=N/NC(=O)CCOc2ccccc2C)cc(Br)c1O` was -16.4%. Take `CCC(C)Sc1ccc([C@@H]2[C@H]3C(=O)N(CC)C(=O)[C@H]3[C@]3(C(=O)OC)CCCN23)cc1OC.O=C(O)C(F)(F)F` (some centres unmarked): the “hERG current change (%, negative = inhibition) at 10uM” value was -44.9%.

For the compound `O=S(=O)(NCc1ccccn1)c1ccc2c(c1)OCCO2`, the “hERG current change (%, negative = inhibition) at 10uM” value came out at 10.5%. Under `Cc1ccc(C(=O)NCCN2CCOCC2)c(Cl)c1` stands 5.79%; under `O=C(CSc1nc(O)c(Cc2ccccc2)c(=O)[nH]1)Nc1ccccc1`, 8.28%; under `COC1C(C)=C(C)C(=O)N1Cc1ccccc1` (centres unmarked), 10.9%.

For `COc1ccc(C)cc1NC(=O)C(OC(=O)CNC(=O)c1cccc(F)c1)c1ccccc1` (centres unmarked), the “hERG current change (%, negative = inhibition) at 10uM” value was -0.966%. Under `COc1ccc(C(=O)OCC(=O)Nc2nnc(-c3ccccc3)o2)cc1` stands 1.81%.

On to `COc1cccc(-c2nnc(SCC(=O)OC(C)C)n2Cc2ccco2)c1`, for which the “hERG current change (%, negative = inhibition) at 10uM” value was -15.3%. The value for `O=C(COC(=O)c1cccs1)NCc1ccco1` was 0.629%; that for `COc1ccc(OCCOC(=O)CCS(=O)(=O)c2ccc(C)cc2)cc1` was -7.59%.

On to `Cc1ccccc1S(=O)(=O)Nc1nc2ccccc2nc1Cl`, for which the “hERG current change (%, negative = inhibition) at 10uM” value is 3.98%.

Consider `NC1=NC(=O)C2(COC(c3cccc([N+](=O)[O-])c3)OC2)S1` (centres unmarked), for which the “hERG current change (%, negative = inhibition) at 10uM” value is -4.96%. The value for `O=C(Nc1ccc(Cl)cc1)c1ccc2c(c1)S(=O)(=O)c1ccccc1C2=O` was 8.74%. As to `CCOC(=O)c1sc(NC(=O)CN(CC)CC)c(C(=O)OCC)c1C`, the “hERG current change (%, negative = inhibition) at 10uM” value is recorded as 13.3%. The value for `Cc1ccccc1OCC(=O)OCC(=O)c1ccc[nH]1` was -7.35%; that for `C/C(=N\NC(=O)c1ccc(CN2CCOCC2)cc1)c1ccc(NC(=O)c2ccccc2)cc1` was -9.74%; that for `C=CCn1c(N)c(C(=O)NCc2ccco2)sc1=S` was -5.83%. The value for `Cc1ccccc1NC(=S)NNC(=O)c1csc2c1CCC(C)C2` (centres unmarked) was 9.44%; that for `Cc1ccccc1Oc1ccc(NC(=O)C2CC=CCC2C(=O)O)cc1` (centres unmarked) was 12%; that for `COC(=O)CN(c1ccc(OC)cc1)S(=O)(=O)c1c(C)noc1C` was 2.56%.

These data come from PMC4336329 (PLoS ONE, 2015).
